A lower IC50 marks a more sensitive line; a fit beyond the top or the lowest dose is shown as a bound at that dose. AUC, from the same fit, is the share of area under the viability curve across the 256-fold dose range; values near 1 show little effect. Any top dose called inferred was calculated from the reported fits. For some assays here: An entry number marks a drug with two screens in the source, which often give different values.

Compound in the first test: Cc1cc(N2CCOCC2)cc2[nH]c(-c3c(NC[C@@H](O)c4cccc(Cl)c4)cc[nH]c3=O)nc12 [BMS-536924]
The experiment in a line: Viability of human cancer cell lines after 72 h of drug (GDSC screen). The following applies: top dose 4 µM; screen: GDSC drug entry 1091; top dose inferred. As to the method:
(§1)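 Human cancer cell lines in 384-well plates, medium with 10% serum, drug for 72 h over a 256-fold dose range (nine 2-fold or five 4-fold steps up to the top dose). Adherent lines were fixed and stained with the nucleic acid dye Syto60, suspension lines read with resazurin; signal relative to control wells, capped at 0 and 100%. One two-parameter sigmoid per drug and line, fitted in a mixed model over all curves with the slope shared within a line.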
A word on the IC50: it is the midpoint of a concentration-inhibition curve. Regarding H3118 (head and neck, adherent), the AUC was 0.632 and the half-inhibitory concentration (IC50) turned out to be 600 nM.

Consider “HARA (lung squamous cell carcinoma, adherent)”, for which the AUC was 0.856 and the IC50 was more than 4000 nM.

For “HCC-15 (lung squamous cell carcinoma, adherent)”, the AUC was 0.857 and the IC50 was more than 4000 nM.

Hs766T (pancreas, adherent): the AUC was 0.92 and the IC50 is more than 4000 nM.

Turning to Hs-578-T (breast, adherent), the AUC stood at 0.958 and the IC50 is more than 4000 nM.

Regarding JHU-022 (head and neck, adherent), the AUC is 0.883 and the 50% inhibitory concentration (IC50) is more than 4000 nM.

In the case of JIMT-1 (breast, adherent), the AUC is 0.949 and the IC50 was more than 4000 nM.

With “LC-1-sq (lung squamous cell carcinoma, adherent)”, the AUC was 0.954 and the 50% inhibitory concentration (IC50) was more than 4000 nM.

In the case of MDA-MB-330 (breast, adherent), the AUC stood at 0.967 and the half-inhibitory concentration (IC50) is more than 4000 nM.

On to MDA-MB-415 (breast, adherent), for which the AUC is 0.951 and the IC50 is more than 4000 nM.

Consider MDA-MB-468 (breast, adherent), for which the AUC came to 0.915 and the IC50 was more than 4000 nM.

As for MOG-G-UVW (glioma, adherent), the AUC came to 0.985 and the IC50 is more than 4000 nM.

“NCI-H841 (small cell lung carcinoma, adherent)”: the AUC was 0.961 and the half-maximal inhibitory concentration (IC50) is more than 4000 nM.

With “NCI-H1688 (small cell lung carcinoma, adherent)”, the AUC worked out at 0.899 and the IC50 is more than 4000 nM.

Regarding “NCI-H1944 (lung adenocarcinoma, adherent)”, the AUC was 0.794 and the IC50 worked out at 1980 nM.

Turning to “NCI-H2110 (non-small cell lung carcinoma, adherent)”, the AUC was 0.706 and the 50% inhibitory concentration (IC50) came out at 965 nM.

Turning to OE21 (oesophagus, adherent), the AUC came out at 0.789 and the IC50 came out at 2550 nM.

For the cell line OV-90 (ovary, adherent), the AUC is 0.83 and the IC50 is 3550 nM.

Consider OVISE (ovary, adherent), for which the AUC was 0.951 and the IC50 is more than 4000 nM.

As to OVTOKO (ovary, adherent), the AUC came out at 0.868 and the IC50 is more than 4000 nM.

For PANC-02-03 (pancreas, adherent), the AUC was found to be 0.905 and the IC50 is more than 4000 nM.

In the case of PCI-4B (head and neck, adherent), the AUC came out at 0.904 and the IC50 was more than 4000 nM.

As to PCI-6A (head and neck, adherent), the AUC turned out to be 0.965 and the concentration for half-maximal inhibition (IC50) was more than 4000 nM.

In the case of PEO1 (ovary, adherent), the AUC is 0.9 and the concentration for half-maximal inhibition (IC50) is more than 4000 nM.

For the cell line RCC-AB (kidney, adherent), the AUC was 0.969 and the concentration for half-maximal inhibition (IC50) is more than 4000 nM.

Regarding RCC-FG2 (kidney, adherent), the AUC came to 0.903 and the IC50 was more than 4000 nM.

For RCC-JF (kidney, adherent), the AUC was determined as 0.93 and the IC50 is more than 4000 nM.

Regarding RCC-JW (kidney, adherent), the AUC stood at 0.979 and the 50% inhibitory concentration (IC50) was more than 4000 nM.

With SK-GT-4 (oesophagus, adherent), the AUC amounted to 0.936 and the IC50 was more than 4000 nM.

Turning to TE-4 (oesophagus, adherent), the AUC came to 0.945 and the 50% inhibitory concentration (IC50) was more than 4000 nM.

Compound in the next test: NC(=O)c1ccc(N(C(N)=O)c2c(F)cccc2F)nc1-c1ccc(F)cc1F [VX-702]
Described as above. As to conditions: top dose 2 µM; top dose inferred. As to the method: as §1
For the cell line 451Lu (melanoma, adherent), the AUC is 0.953 and the half-inhibitory concentration (IC50) is more than 2000 nM.

Turning to ASH-3 (thyroid, adherent), the AUC was determined as 0.988 and the 50% inhibitory concentration (IC50) is more than 2000 nM.

Consider CHSA0011 (chondrosarcoma, adherent), for which the AUC worked out at 0.973 and the IC50 is more than 2000 nM.

With COLO-783 (melanoma, adherent), the AUC was found to be 0.991 and the IC50 was more than 2000 nM.

For EFM-192A (breast, adherent), the AUC turned out to be 0.981 and the IC50 was more than 2000 nM.

Consider H3118 (head and neck, adherent), for which the AUC is 0.958 and the IC50 is more than 2000 nM.

In the case of “HARA (lung squamous cell carcinoma, adherent)”, the AUC amounted to 0.978 and the IC50 was more than 2000 nM.

As for “HCC-15 (lung squamous cell carcinoma, adherent)”, the AUC came out at 0.943 and the IC50 is more than 2000 nM.

Consider Hs766T (pancreas, adherent), for which the AUC worked out at 0.959 and the IC50 is more than 2000 nM.

On to Hs-578-T (breast, adherent), for which the AUC is 0.987 and the IC50 is more than 2000 nM.

Take JHU-022 (head and neck, adherent): the AUC was found to be 0.976 and the IC50 is more than 2000 nM.

In the case of JIMT-1 (breast, adherent), the AUC stood at 0.98 and the IC50 is more than 2000 nM.

As for “LC-1-sq (lung squamous cell carcinoma, adherent)”, the AUC worked out at 0.913 and the 50% inhibitory concentration (IC50) was more than 2000 nM.

Take MDA-MB-330 (breast, adherent): the AUC amounted to 0.976 and the IC50 is more than 2000 nM.

Regarding MDA-MB-415 (breast, adherent), the AUC is 0.983 and the IC50 was more than 2000 nM.

For MDA-MB-468 (breast, adherent), the AUC was determined as 0.988 and the half-inhibitory concentration (IC50) was more than 2000 nM.

Take MOG-G-UVW (glioma, adherent): the AUC amounted to 0.958 and the concentration for half-maximal inhibition (IC50) is more than 2000 nM.

With “NCI-H841 (small cell lung carcinoma, adherent)”, the AUC was 0.985 and the half-inhibitory concentration (IC50) was more than 2000 nM.

Regarding “NCI-H1688 (small cell lung carcinoma, adherent)”, the AUC was 0.986 and the half-maximal inhibitory concentration (IC50) was more than 2000 nM.

Regarding “NCI-H1944 (lung adenocarcinoma, adherent)”, the AUC turned out to be 0.985 and the IC50 is more than 2000 nM.

For the cell line “NCI-H2110 (non-small cell lung carcinoma, adherent)”, the AUC amounted to 0.968 and the half-inhibitory concentration (IC50) is more than 2000 nM.

For the cell line OE21 (oesophagus, adherent), the AUC was 0.947 and the IC50 was more than 2000 nM.

Consider OV-90 (ovary, adherent), for which the AUC came out at 0.971 and the IC50 is more than 2000 nM.

As for OVISE (ovary, adherent), the AUC came to 0.871 and the IC50 is more than 2000 nM.

Consider OVTOKO (ovary, adherent), for which the AUC worked out at 0.945 and the IC50 is more than 2000 nM.

Regarding PANC-02-03 (pancreas, adherent), the AUC stood at 0.976 and the IC50 was more than 2000 nM.

PCI-4B (head and neck, adherent): the AUC was 0.974 and the 50% inhibitory concentration (IC50) was more than 2000 nM.

Take PCI-6A (head and neck, adherent): the AUC is 0.942 and the concentration for half-maximal inhibition (IC50) is more than 2000 nM.

On to PEO1 (ovary, adherent), for which the AUC was determined as 0.987 and the IC50 was more than 2000 nM.

In the case of RCC-AB (kidney, adherent), the AUC is 0.955 and the IC50 is more than 2000 nM.

Consider RCC-FG2 (kidney, adherent), for which the AUC came to 0.963 and the half-maximal inhibitory concentration (IC50) was more than 2000 nM.

Take RCC-JF (kidney, adherent): the AUC was determined as 0.935 and the half-inhibitory concentration (IC50) was more than 2000 nM.

RCC-JW (kidney, adherent): the AUC is 0.986 and the concentration for half-maximal inhibition (IC50) is more than 2000 nM.

As to SK-GT-4 (oesophagus, adherent), the AUC stood at 0.976 and the half-inhibitory concentration (IC50) was more than 2000 nM.

Turning to TE-4 (oesophagus, adherent), the AUC was found to be 0.982 and the IC50 is more than 2000 nM.

Compound in a further test: Cc1cccc(-c2[nH]c(C(C)(C)C)nc2-c2ccc3nccnc3c2)n1 [SB-525334]
Described as above. As to conditions: top dose 20 µM; top dose inferred. As to the method:
as §1
451Lu (melanoma, adherent): the AUC was 0.986 and the IC50 was more than 20000 nM.

As to ASH-3 (thyroid, adherent), the AUC was 0.988 and the IC50 was more than 20000 nM.

The values above are taken from the supplement of paper PMC4967469.
